Values quoted from earlier work in US20240156960A1 (priority 2020, published 2024).

Legend:
SARS-CoV2 = details: source Davide Robbiani et al., 2020

B1: C131 (antibody, listed as Homo sapiens, V domains shown)
VH: QVQLVQSGSEVKKPGSSVKVSCKASGGTFSSYAFSWVRQAPGQGLEWMGRIIPILALANYAQKFQGRVTITADKSTSTAYMELSSLRSEDTAVYYCARVNQAVTTPFSMDVWGQGTTVTVSS
VL: EIVMTQSPATLSVSPGERATLSCRASQSVSSNLAWYQQKPGQAPRLLIYGASTRATGIPARFSGSGSGTEFTLTISSLQSEDFAVYYCQQYNNWPITFGQGTRLEIK
Not Neutralising Vs (SARS-CoV1): SARS-CoV1 | Binds to (SARS-CoV2): SARS-CoV2
